Our source for the GI50 and TGI values is PubChem BioAssay (NCI).

This test concerns NCI-H322M lung. In words: NCI tumour cell line growth inhibition, 48 h.

Structures are written as SMILES.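 Interpolation was linear, between the two tested concentrations surrounding the appropriate level; five concentrations were tested over 48 hours in 96-well plates. At the GI50, growth is halved. TGI is the concentration that stops growth completely.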

Turning to `O=C(N/N=C/c1occc1Br)c1[nH]c2ccc(Br)cc2c1-c1ccccc1`, the GI50 was 6.13 µM and the TGI amounted to 21.8 µM.

With `CN1CCN(c2ccc(C(=O)/C=C/c3cc(C(F)(F)F)ccc3Cl)cc2)CC1`, the GI50 is 13.4 µM and the TGI stood at 26.2 µM.
